# About 110 (5.5%) of roughly 2,000 compounds showed an effect of 50% or more. The list shows a part of the results.
# Target: Genome polyprotein (dengue virus type 2) (UniProt P29990)
# [1] = Thailand/16681/1984, Concentration 25.0 uM, Number of replicates 1.0
smiles,measurement,setting,value
NC(=O)C1CCN(Cc2c[nH]c3ccccc23)CC1,inhibition,"Thailand/16681/1984, Concentration 49.5 uM, Number of replicates 2.0, Standard deviation 4.733884122874981 %",-4.32%
same,inhibition,"Thailand/16681/1984, Concentration 99.01 uM, Number of replicates 2.0, Standard deviation 4.912883221493597 %",-4.51%
same,inhibition,"Thailand/16681/1984, Concentration 198.0 uM, Number of replicates 2.0, Standard deviation 5.116814330495681 %",-4.2%
COc1cc(C(=O)NCc2ccccc2)nc(N2CCNCC2)n1,inhibition,"Thailand/16681/1984, Concentration 49.5 uM, Number of replicates 2.0, Standard deviation 2.184924005133463 %",-1.95%
same,inhibition,"Thailand/16681/1984, Concentration 99.01 uM, Number of replicates 2.0, Standard deviation 2.834161372073491 %",-1.15%
same,inhibition,"Thailand/16681/1984, Concentration 198.0 uM, Number of replicates 2.0, Standard deviation 2.650064738568028 %",-1.21%
O=S(=O)(c1c[nH]c2ccccc12)N1CCC(c2cnc3ccc[nH]c2-3)CC1,inhibition,"Thailand/16681/1984, Concentration 49.5 uM, Number of replicates 2.0, Standard deviation 0.7306995754585818 %",-3.25%
same,inhibition,"Thailand/16681/1984, Concentration 99.01 uM, Number of replicates 2.0, Standard deviation 0.7492386675662202 %",-1.52%
same,inhibition,"Thailand/16681/1984, Concentration 198.0 uM, Number of replicates 2.0, Standard deviation 0.06520690661775055 %",-3.65%
O=Cc1ccc(N2CCC(C(=O)Nc3c(F)cc(F)cc3Cl)CC2)cc1,inhibition,[1],13.8%
O=C(O)c1ccn(C2CCN(Cc3c[nH]c4ccccc34)CC2)n1,inhibition,"Thailand/16681/1984, Concentration 49.5 uM, Number of replicates 2.0, Standard deviation 2.1869842063089484 %",-2.55%
same,inhibition,"Thailand/16681/1984, Concentration 99.01 uM, Number of replicates 2.0, Standard deviation 2.684345636447637 %",-2.42%
same,inhibition,"Thailand/16681/1984, Concentration 198.0 uM, Number of replicates 2.0, Standard deviation 2.4976754742252494 %",-2.46%
CC(C)N(C[C@H](O)COc1cccc2ccccc12)C(=O)C1CCN(c2ccc(C=O)cc2)CC1,inhibition,[1],12.5%
C[C@@H](c1ccccc1)N(CC1CC1)C(=O)C1CCN(c2ccc(C=O)cc2)CC1,inhibition,[1],13.8%
Cc1cc(CO)c2cccc(NC(=O)CC3CNC3)c2n1,inhibition,"Thailand/16681/1984, Concentration 49.95 uM, Number of replicates 2.0, Standard deviation 1.3762045228616064 %",7.76%
same,inhibition,"Thailand/16681/1984, Concentration 99.9 uM, Number of replicates 2.0, Standard deviation 1.6376626661863318 %",14.8%
Cc1cc(CO)c2cccc(Cc3ccccc3C(=O)N3CC[C@@H](O)C3)c2n1,inhibition,"Thailand/16681/1984, Concentration 49.95 uM, Number of replicates 2.0, Standard deviation 0.06396003425140426 %",-4.12%
same,inhibition,"Thailand/16681/1984, Concentration 99.9 uM, Number of replicates 2.0, Standard deviation 1.3201636707111568 %",-1.44%
O=Cc1ccc(N2CCC(C(=O)Nc3ncc(Br)nc3Cl)CC2)cc1,inhibition,[1],11.8%
O=Cc1ccc(N2CCC(C(=O)NC3(c4ccc(Cl)cc4)CC3)CC2)cc1,inhibition,[1],12%
O=Cc1ccc(N2CCC(C(=O)Nc3cccc(OC(F)(F)F)c3)CC2)cc1,inhibition,[1],12.8%
C[C@H]1c2cc(O)c(O)cc2CCN1C(=O)C1CCN(c2ccc(C=O)cc2)CC1,inhibition,[1],17.9%
O=Cc1ccc(N2CCC(C(=O)NCCc3cc(Cl)cc(Cl)c3)CC2)cc1,inhibition,[1],3%
O=Cc1ccc(N2CCC(C(=O)Nc3ncnc(Cl)c3Cl)CC2)cc1,inhibition,[1],10.5%
CN(CCc1ccccc1F)C(=O)C1CCN(c2ccc(C=O)cc2)CC1,inhibition,[1],13.4%
O=Cc1ccc(N2CCC(C(=O)Nc3cc(Cl)nc(Cl)n3)CC2)cc1,inhibition,[1],9.01%
O=C(c1ccn([C@H]2CCCNC2)n1)N1CC[C@H](c2cc(O)[nH]n2)C1,inhibition,"Thailand/16681/1984, Concentration 49.5 uM, Number of replicates 2.0, Standard deviation 1.1637955331347074 %",-0.564%
same,inhibition,"Thailand/16681/1984, Concentration 99.01 uM, Number of replicates 2.0, Standard deviation 1.9960173414682696 %",-0.647%
same,inhibition,"Thailand/16681/1984, Concentration 198.0 uM, Number of replicates 2.0, Standard deviation 0.8228288352338786 %",0.485%
CC(=O)Nc1ccc(NC(=O)C2CCN(c3ccc(C=O)cc3)CC2)cc1,inhibition,[1],11.7%
CN(C(=O)OC(C)(C)C)[C@H]1CCN(C(=O)C2CCN(c3ccc(C=O)cc3)CC2)C1,inhibition,[1],13.2%
COc1cc(Cc2ccc3c(c2)NC(=O)CO3)nc(N2CCNCC2)n1,inhibition,"Thailand/16681/1984, Concentration 49.5 uM, Number of replicates 2.0, Standard deviation 1.2735661360709365 %",0.402%
same,inhibition,"Thailand/16681/1984, Concentration 99.01 uM, Number of replicates 2.0, Standard deviation 1.0906950907733215 %",1.21%
same,inhibition,"Thailand/16681/1984, Concentration 198.0 uM, Number of replicates 2.0, Standard deviation 1.0672920626867075 %",3.16%
CCN(CCNC(=O)C1CCN(c2ccc(C=O)cc2)CC1)c1cccc(C)c1,inhibition,[1],11.3%
Cc1cc(CO)c2cccc(NC(=O)c3nc(N)n[nH]3)c2n1,inhibition,"Thailand/16681/1984, Concentration 49.95 uM, Number of replicates 2.0, Standard deviation 1.7045480288991801 %",42.6%
same,inhibition,"Thailand/16681/1984, Concentration 99.9 uM, Number of replicates 2.0, Standard deviation 15.015963199334223 %",67.3%
CC(C)(CO)NC(=O)c1cc(Cl)cc(OCc2ccccn2)c1,inhibition,"Thailand/16681/1984, Concentration 49.5 uM, Number of replicates 2.0, Standard deviation 3.9117339361958243 %",-3.57%
same,inhibition,"Thailand/16681/1984, Concentration 99.01 uM, Number of replicates 2.0, Standard deviation 3.9139588683287148 %",-3.56%
same,inhibition,"Thailand/16681/1984, Concentration 198.0 uM, Number of replicates 2.0, Standard deviation 3.978479645326132 %",-2.33%
Nc1nc(-c2ccccn2)nc2ccccc12,inhibition,"Thailand/16681/1984, Concentration 49.95 uM, Number of replicates 2.0, Standard deviation 3.830091149504826 %",-6.86%
same,inhibition,"Thailand/16681/1984, Concentration 99.9 uM, Number of replicates 2.0, Standard deviation 4.2800616938003495 %",-7.08%
c1cc(CN2CCC(c3c[nH]c4cccnc34)CC2)c2[nH]ncc2c1,inhibition,"Thailand/16681/1984, Concentration 49.5 uM, Number of replicates 2.0, Standard deviation 0.13607564437452646 %",-0.037%
same,inhibition,"Thailand/16681/1984, Concentration 99.01 uM, Number of replicates 2.0, Standard deviation 0.023091583949542666 %",1.23%
same,inhibition,"Thailand/16681/1984, Concentration 198.0 uM, Number of replicates 2.0, Standard deviation 0.3422509545218043 %",2.24%

# Reference: ChEMBL document CHEMBL5606460, “ASAP - DENV-2 NS2B-NS3 protease fluorescence single point” (2024)
